Among all 410,000 compounds or so, about 6,400 (1.6%) were called active. The inconclusive results got no clear call from the source; some entries with a clear call stand among them for comparison. Calls come from the whole dose curve; as a rule, active = well fitted inhibition curve with a large enough effect; inconclusive = small, poorly fitted or top-dose-only effect; inactive = no such curve, though single readings can be large or run the other way. Potencies of inconclusive entries are left out as doubtful fits.
These compounds were tested against Glucagon-like peptide 1 receptor (Homo sapiens) (UniProt P43220) (assay: qHTS of GLP-1 Receptor Inverse Agonists (Inhibition Mode)). Conditions: HEK293 GLP-1R CRE-luciferase, luminescence, 24 h, GLP-1R form is constitutively active; series mostly up to 38.3 µM.
How it was run: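 Readout was luciferase luminescence, measured 12 min after detection reagent at room temperature. Beforehand, GLP-1R reporter HEK293 cells had sat 12 h, then received compounds for 24 hr at 37 deg C.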
Note: nearly all actives have a fitted effect of over 55% in size.
Potency is the fitted concentration of half-maximal effect; tags give direction and shape of the fitted curve.

Chain of UniProt P43220 (P43220 whole entry, looked up): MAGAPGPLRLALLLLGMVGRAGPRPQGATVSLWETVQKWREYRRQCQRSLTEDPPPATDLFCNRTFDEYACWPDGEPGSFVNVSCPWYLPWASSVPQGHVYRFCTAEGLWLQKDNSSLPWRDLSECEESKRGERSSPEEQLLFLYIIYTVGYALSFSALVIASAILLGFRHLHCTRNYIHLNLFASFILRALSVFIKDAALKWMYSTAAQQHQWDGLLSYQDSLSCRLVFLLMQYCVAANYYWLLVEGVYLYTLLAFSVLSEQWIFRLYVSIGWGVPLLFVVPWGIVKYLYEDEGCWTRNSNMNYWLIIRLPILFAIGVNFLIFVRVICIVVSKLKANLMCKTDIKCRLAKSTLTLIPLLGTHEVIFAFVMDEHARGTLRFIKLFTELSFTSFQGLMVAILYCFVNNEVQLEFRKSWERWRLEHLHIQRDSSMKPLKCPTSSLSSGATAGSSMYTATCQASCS

Compound	Potency
CC(=O)c1c(C)c2c(n1CCN(C)C)CCCC2	inconclusive [inhibitor, single point]
CCCCCCCCCCCCCCCC[n+]1cccc2ccccc21	inconclusive [inhibitor, single point]
CCCCNc1nc2ccccc2nc1NS(=O)(=O)c1ccc(F)cc1	inconclusive [inhibitor, single point]
COc1cccc(-n2cc(CNC(=O)C3CCC(=O)N(C4CC4)C3)cn2)c1 (configuration not stated)	inactive
CC(C)NC(=O)N(C)C[C@H]1Oc2cc(C#Cc3ccc(F)cc3)ccc2S(=O)(=O)N([C@H](C)CO)C[C@H]1C	inconclusive [inhibitor, partial curve]
COc1ccc(Cl)cc1NC(=S)NCc1cccs1	inactive
O=C(COC(=O)C12CC3CC(CC(O)(C3)C1)C2)Nc1ccc(OC(F)F)cc1	inconclusive [inhibitor, partial curve, poor fit]
CCOc1ccc(N(CC)C(=O)c2noc3c2COc2ccc(C)cc2-3)cc1	inconclusive [inhibitor, single point]
O=c1c(N2CCc3ccccc3C2)csc2ccc(F)cc12	inactive
Clc1ccc(/C=C\c2nccc3c2[nH]c2ccccc23)cc1	inconclusive [inhibitor, partial curve]
Cc1nc2ccc(NC(=O)Cc3ccccc3F)cc2s1	inconclusive [inhibitor, single point]
CCc1nc2ccc(C(=O)NCc3cccs3)cn2c1N(CC)Cc1cccc(Br)c1	inconclusive [inhibitor, single point]
CC(=O)/C(=N\Nc1ccc(C)cc1)Sc1nncn1C	inconclusive [inhibitor, partial curve]
CN1CCCN(Cc2ccc(Cl)cc2Cl)CC1	inconclusive [inhibitor, partial curve, poor fit]
Cc1cc(C)cc(NC(=O)c2sc3nc[nH]c(=O)c3c2C)c1	inactive
OC(c1ccccc1)(c1nc(-c2ccccc2)cs1)C(F)(F)F (configuration not stated)	inconclusive [inhibitor, single point]
CCCOc1ccc(C(=O)NNC(=S)NC(C)=O)cc1	inactive
CCCCn1c(N)c(C(=S)NC(=O)CC(C)C)c(=O)n(C)c1=O	inconclusive [inhibitor, single point]
CC(NC(=O)C1CCCN(C(=O)c2ccc(Cl)cc2)C1)c1cccc(C(F)(F)F)c1 (configuration not stated)	inconclusive [inhibitor, partial curve, poor fit]
O=C(C1CCCCC1)N1C[C@@H](O)[C@H](n2cc(-c3ccc(F)cc3)nn2)C[C@@H]1c1ccc(Cl)cc1	inconclusive [inhibitor, single point]
CCOC(=O)N1CCN(S(=O)(=O)c2ccc(C(=O)N(CCCN(C)C)c3nc4ccc(CC)cc4s3)cc2)CC1	inconclusive [inhibitor, single point]

Compound	Potency
COc1ccc(CNC(=O)CSCc2cnn(-c3ccccc3)c2-n2cccc2)cc1OC	inactive
COc1ccc(-c2csc(NC(=O)C3CCCCN3S(=O)(=O)c3ccccc3)n2)cc1 (configuration not stated)	inconclusive [inhibitor, partial curve, poor fit]
COc1ccc(NC(=S)NC(NC(=O)c2cccc(Cl)c2)C(Cl)(Cl)Cl)c([N+](=O)[O-])c1 (configuration not stated)	inconclusive [inhibitor, single point]
CCOC(=O)Cc1csc(NC(=O)Nc2ccc(F)cc2)n1	inconclusive [inhibitor, single point]
CCC(C)N(C(=O)Cn1nnc2ccccc21)C(C(=O)Nc1ccc(F)cc1)c1cccc(OC)c1 (configuration not stated)	inconclusive [inhibitor, partial curve, poor fit]
O=C(Nc1ccc(/C=C/c2nc3ccccc3o2)cc1)c1c(F)cccc1F	inconclusive [inhibitor, single point]
Cc1cc(C)cc(NC(=O)CSc2nnc(Cc3cccn3C)n2-c2ccc(F)cc2)c1	inconclusive [inhibitor, single point]
CCCc1nc(SCC(=O)NNC(=O)c2ccc(OC)cc2)c2ccccc2n1	inconclusive [inhibitor, single point]
Nc1c(C(=O)Nc2ccc(Cl)cc2)oc2ccccc12	inconclusive [inhibitor, single point]
COc1cccc(NC(=O)CCc2nc(-c3ccccc3F)no2)c1	inactive
CCCCCCCCN1C(=O)[C@H](CC(=O)NCCC(C)C)C[C@@]2(C(=O)OCC)CCCC=C12	inconclusive [inhibitor, single point]
CCc1ccc(C(=O)c2cn(CC(=O)Nc3ccc4c(c3)OCCO4)c3ccc(CC)cc3c2=O)cc1	inactive
Cc1ccc2oc(C(=O)Nc3nc(-c4ccc(F)cc4)ns3)c(C)c2c1	inactive
O=S(=O)(NC1CCCCCCC1)c1ccccc1	inconclusive [inhibitor, partial curve, poor fit]
O=C(CN1CCN(c2ccccn2)CC1)Nc1ccc(Oc2ccccc2)cc1	inconclusive [inhibitor, partial curve, poor fit]
Cc1ccc(CNC(=O)C(NS(=O)(=O)c2cccc3nsnc23)c2ccccc2)cc1 (configuration not stated)	inconclusive [inhibitor, single point]
COc1ccc(Nc2cc(C(=O)NCCCN3CCN(C)CC3)c3ccccc3n2)cc1OC	inconclusive [inhibitor, partial curve, poor fit]
CC(C)(C)NC(=O)C(OC(=O)c1cccs1)c1ccccc1 (configuration not stated)	inactive
COc1ccc(CCNC(=O)c2ccc3c(Cl)c4c(nc3c2)CCCC4)cc1OC	inactive
COc1ccc(-c2nc3ncccc3n2O)cc1	inactive
Cc1cccc(C(=O)N2CCN(c3ccc(C(F)(F)F)cn3)CC2)c1C	inconclusive [inhibitor, partial curve, poor fit]

Reference: PubChem BioAssay AID624417 (National Center for Advancing Translational Sciences (NCATS), 2012)
